{"source": "ChEMBL document CHEMBL4888484", "about": "“Replenishing the malaria drug discovery pipeline: Screening and hit evaluation of the MMV Hit Generation Library 1 (HGL1) against asexual blood stage Plasmodium falciparum ,using a nano luciferase reporter read-out” (2022)", "note": "Among all 150,000 compounds or so, about 540 (0.36%) showed an effect of 50% or more. Some of the results follow.", "data": [{"test_system": "Plasmodium falciparum", "assay": "Primary screen in NF54 nanoGlo assay, in single point, at 2uM, 72h; a lower Z score goes with more inhibition", "assay_type": "functional, Erythrocyte", "conditions": "timepoint 72 hour", "units": {"% Inhibition": "%"}, "values": [{"smiles": "CC(C)CNc1nc(-c2ccc(Cl)cc2)c2c(N)n(-c3ccccc3Cl)nc2n1", "% Inhibition": -8, "Z score": 1.14}, {"smiles": "O=C(CCn1cncn1)NC[C@@H]1COc2ccccc2C1", "% Inhibition": -1, "Z score": 0.25}, {"smiles": "COc1ccccc1CN[C@H]1CC(C)(C)[C@@H]2C[C@@](C)(O)CC[C@]12CCC(=O)NCCN1CCOCC1", "% Inhibition": 1, "Z score": -0.13}, {"smiles": "O=C(CCc1ccc(=O)[nH]n1)N1CCC(N2CCc3ccccc3C2)CC1", "% Inhibition": -10, "Z score": 1.85}, {"smiles": "N#CCN(CC#N)C(=O)COc1ccc(Cl)c(Cl)c1", "% Inhibition": -9, "Z score": 1.79}, {"smiles": "Cc1nnc(NC(=O)CC2(N3Cc4ccccc4C3=O)CCOCC2)s1", "% Inhibition": -13, "Z score": 1.83}, {"smiles": "CCCN(Cc1c(-c2ccccc2)noc1N(C)C(C)C)C(=O)c1ccccc1OC", "% Inhibition": -5, "Z score": 0.67}, {"smiles": "COc1cc2c(cc1OC)[C@H](CNS(=O)(=O)c1ccc(C)cc1)N(Cc1ccc(F)cc1)CC2", "% Inhibition": 14, "Z score": -1.9}, {"smiles": "CCS(=O)(=O)c1ccccc1N1CCN(CC(C)C)C(=O)C1", "% Inhibition": -10, "Z score": 1.01}, {"smiles": "Cc1cnn([C@@H](C)C2CC2)c1NC(=O)NCc1cccc(C(=O)N(C)C)c1", "% Inhibition": -9, "Z score": 1.29}, {"smiles": "Cc1ccc(NC(=O)Cc2c(C)nc3nc(-c4ccccc4Cl)nn3c2C)c(C)c1", "% Inhibition": -9, "Z score": 0.92}, {"smiles": "CC1CCCC1(O)CNC(=O)C1CC12CCN(C(=O)OCc1ccccc1)C2", "note": "(centres undefined)", "% Inhibition": -17, "Z score": 1.91}, {"smiles": "O=C(Cc1csc(NC(=O)c2ncccn2)n1)Nc1cccnc1", "% Inhibition": -20, "Z score": 2.32}, {"smiles": "C[C@H]1CN(c2cccc(Cl)c2)C(=O)CN1C(=O)c1ccc2[nH]nnc2c1", "% Inhibition": -5, "Z score": 0.81}, {"smiles": "Cc1csc2c(N3CCN([C@H]4CCCN(C)C4)CC3)ncnc12", "% Inhibition": -11, "Z score": 1.09}, {"smiles": "COCCCN1CC(=O)N[C@@H]2CN(C(=O)C3CCOCC3)CC[C@@H]2OCc2cccc(c2)Oc2ccc(cc2OC)CCC1=O", "% Inhibition": -12, "Z score": 1.52}, {"smiles": "N#Cc1cccc(N2CC(c3ccccn3)C2)n1", "% Inhibition": -10, "Z score": 1.94}, {"smiles": "O=C(N[C@@H](Cc1ccccc1)c1ccccn1)c1cnn2c1OCCC2", "% Inhibition": -4, "Z score": 0.71}, {"smiles": "COc1ccc(CC(=O)NCc2ccc3c(c2)CCN3C(=O)c2ccc(C)cc2)cc1OC", "% Inhibition": 1, "Z score": -0.12}, {"smiles": "Cc1cc(N2CCC[C@H](CNC(=O)c3cn(C)nc3C)C2)ccn1", "% Inhibition": -16, "Z score": 1.5}, {"smiles": "COc1cccc(-c2c(NC(=O)c3ccc(Cl)cc3)n(-c3ccccc3)nc(C)c2=O)c1", "% Inhibition": 0, "Z score": 0}, {"smiles": "O=C1NCCN1CC1CCN(C(=O)c2n[nH]c3ccccc23)CC1", "% Inhibition": 2, "Z score": -0.21}, {"smiles": "Cc1nn(C)c(Cl)c1C(=O)N(C)C[C@H](C)C(=O)O", "% Inhibition": -2, "Z score": 0.23}, {"smiles": "Cc1ccc(NS(=O)(=O)c2ccc(C(=O)N3C4CCC3CC(=O)NC4)cc2)cc1C", "note": "(centres undefined)", "% Inhibition": -10, "Z score": 1.49}, {"smiles": "O=C(Nc1ncccc1Br)c1c[nH]nn1", "% Inhibition": -1, "Z score": 0.15}, {"smiles": "COc1ccccc1[C@@H](NC(=O)OC(C)(C)C)C(=O)O", "% Inhibition": 13, "Z score": -1.48}, {"smiles": "CCc1csc(CC(=O)N2CC3COCC(C2)O3)n1", "% Inhibition": 4, "Z score": -0.64}, {"smiles": "CC(C)Cc1nc(CNC(=O)C2CCCC2)no1", "% Inhibition": 9, "Z score": -1.17}, {"smiles": "CC1CC2(CCCCC2)NC(C)c2ccccc21", "note": "(centres undefined)", "% Inhibition": -3, "Z score": 0.45}, {"smiles": "Cc1nn2c(nc1=O)-c1ccccc1NC21CCCCCC1", "% Inhibition": -11, "Z score": 1.88}, {"smiles": "Cc1cc(C(=O)NCCOCCn2ccnc2)no1", "% Inhibition": 0, "Z score": -0.01}, {"smiles": "CCCN(CCC)S(=O)(=O)Cc1ccc(Cl)cc1C#N", "% Inhibition": 15, "Z score": -1.73}, {"smiles": "CN(C(=O)CN1C(=O)c2ccccc2C1=O)c1nc2ccccc2o1", "% Inhibition": 0, "Z score": 0}, {"smiles": "CC(C)Oc1ccc(C(=O)N2C3CCC2CN(Cc2ccccc2)C3)cc1", "% Inhibition": -13, "Z score": 2.54}, {"smiles": "O=C(CC[C@H]1CCCCO1)N1CCOc2ccncc21", "% Inhibition": -1, "Z score": 0.11}, {"smiles": "O=C(NC1CCCCCCC1)[C@H]1CCS(=O)(=O)C1", "% Inhibition": 0, "Z score": -0.03}, {"smiles": "C[C@@H](C1CC1)N(CCC#N)C(=O)c1ccc2c(c1)NC(=O)C2", "% Inhibition": 0, "Z score": -0.05}, {"smiles": "C=CCN(CC(=O)N(Cc1ccccc1)Cc1ccc(C)o1)S(=O)(=O)c1ccccc1", "% Inhibition": -6, "Z score": 0.71}, {"smiles": "CC(C)Cc1ccc(CN(C)C[C@H]2CCOC2)s1", "% Inhibition": 3, "Z score": -0.62}, {"smiles": "COc1ccc(CCC(=O)N2CCCCCNC(=O)[C@@H]3CCC[C@@H]32)cc1", "% Inhibition": -6, "Z score": 1.02}, {"smiles": "Cc1cccc(OCc2nc(-c3nonc3N)no2)c1C", "% Inhibition": -10, "Z score": 1.34}, {"smiles": "CC(C)Cn1c(C(=O)N2CCCC2)nnc1N1CC[C@]2(CNC(=O)C2)C1", "% Inhibition": 1, "Z score": -0.1}, {"smiles": "NC(=O)c1cnc(N2CCc3[nH]c4ccccc4c3C2)c(Cl)c1", "% Inhibition": -20, "Z score": 3.08}, {"smiles": "COCc1cc(O)nc(N=C(N)Nc2ccc(Oc3ccccc3)cc2)n1", "% Inhibition": -17, "Z score": 2.18}, {"smiles": "CC(Oc1ccccc1)C(=O)Nc1cc(NC(=O)C(C)Oc2ccccc2)cc(C(=O)O)c1", "note": "(centres undefined)", "% Inhibition": -8, "Z score": 1.06}, {"smiles": "Cc1cc(C)cc(NC(=O)CC(=O)NCC[C@H]2CCCN2C)c1", "% Inhibition": 19, "Z score": -2.38}, {"smiles": "COCc1noc(CNc2nc(-c3ccco3)nc3c2CCNCC3)n1", "% Inhibition": 3, "Z score": -0.63}, {"smiles": "COCc1noc(CN[C@H]2CCCC2(C)C)n1", "% Inhibition": -7, "Z score": 1.04}, {"smiles": "COc1ccccc1CNC(=O)c1ccc2nc(-c3ccc(OC)c(OC)c3)c(-c3ccc(OC)c(OC)c3)nc2c1", "% Inhibition": 30, "Z score": -3.54}, {"smiles": "COc1cccc(-c2nc3ccc(-c4ccccc4)cn3c2CN2CCN(C(=O)c3cccc(F)c3)CC2)c1", "% Inhibition": 6, "Z score": -0.67}, {"smiles": "O=C(Nc1ccc2c(c1)OC1(CCCCC1)O2)c1ccc(F)cc1", "% Inhibition": -1, "Z score": 0.08}, {"smiles": "C=CCN(C)c1nnc(C2CCCO2)n1CC1CCCCO1", "note": "(centres undefined)", "% Inhibition": -21, "Z score": 4.09}, {"smiles": "N#CC1(C#N)[C@@H](C(=O)c2ccccc2)C12CCCCC2", "% Inhibition": -21, "Z score": 2.65}, {"smiles": "CC1CCCC(C(=O)NCCCNCc2cccnc2)C1", "note": "(centres undefined)", "% Inhibition": -7, "Z score": 0.7}, {"smiles": "CCC(C)C(OC)C(=O)N(C)c1ncccn1", "note": "(centres undefined)", "% Inhibition": -7, "Z score": 1.39}, {"smiles": "COc1ccc2[nH]c3c(c2c1)CCN(C)C31CCN(C(=O)Cc2cccnc2)CC1", "% Inhibition": -4, "Z score": 0.68}, {"smiles": "Cc1ccc([C@H]2C[C@@H](O)[C@@H](O)[C@@H]2NS(C)(=O)=O)cc1", "% Inhibition": -10, "Z score": 1.47}, {"smiles": "CC(C)n1cc(NC(=O)N2CCCC[C@@H]2CCc2ccccn2)cn1", "% Inhibition": -6, "Z score": 1.07}, {"smiles": "CCC[C@H](NC(=O)Cc1ccccc1OC)c1nnn[nH]1", "% Inhibition": 34, "Z score": -3.79}, {"smiles": "C[C@H](CCC(=O)N1CCN(Cc2ccc3c(c2)OCO3)CC1)[C@H]1CC[C@H]2[C@@H]3[C@@H](O)C[C@@H]4C[C@H](O)CC[C@]4(C)[C@H]3CC[C@]12C", "% Inhibition": -12, "Z score": 1.44}, {"smiles": "CCN1C(=O)[C@@](CN2CCN(c3cccc(Cl)c3)CC2)(NC(C)=O)c2ccccc21", "% Inhibition": 3, "Z score": -0.4}, {"smiles": "CCOC(=O)[C@@]1(C(C)C)CCN(Cc2nc(C(C)C)no2)C1", "% Inhibition": 0, "Z score": 0}, {"smiles": "O=C(Nc1ccc(S(=O)(=O)N2CC3CC4CC3C2C4O)cc1)c1cnccn1", "note": "(centres undefined)", "% Inhibition": 26, "Z score": -2.95}, {"smiles": "CC[C@H](C)N(Cc1sccc1C)C(=O)CCNC(=O)c1ccc(F)cc1", "% Inhibition": 6, "Z score": -0.76}, {"smiles": "O=C1N[C@@H](COCc2ccccc2)C(=O)N2CCC[C@H]12", "% Inhibition": 4, "Z score": -0.57}, {"smiles": "COc1cc(OC)cc([C@H]2CCN(C(=O)c3cc(C)n[nH]3)C2)c1", "% Inhibition": -3, "Z score": 0.28}, {"smiles": "COc1ccc(-c2nc3cc(C)ccn3c2NC(=O)NCc2ccccc2)cc1", "% Inhibition": -8, "Z score": 0.92}, {"smiles": "Cn1c(CO)nnc1C1CCN(C(=O)NC2(c3ccc(Cl)cc3)CC2)CC1", "% Inhibition": -8, "Z score": 1.11}, {"smiles": "Cc1cc(C)c(CNC(=O)[C@H](C)OCC2CC2)c(=O)[nH]1", "% Inhibition": -32, "Z score": 3.77}, {"smiles": "O=C(Nc1cncc(F)c1)c1cccc(S(=O)(=O)NCc2ccno2)c1", "% Inhibition": -25, "Z score": 2.33}, {"smiles": "COc1cc2c(cc1OC)CC(=O)N(CC(=O)c1ccc3c(c1)OCCO3)C=C2", "% Inhibition": -12, "Z score": 1.68}, {"smiles": "CN1CCN([C@H]2CCN(C(=O)COc3ccccc3)C[C@H]2CCCO)CC1", "% Inhibition": -6, "Z score": 1.12}, {"smiles": "O=C1CCN(C(=O)C2(c3cccc(Cl)c3)CCCC2)CCN1", "% Inhibition": 30, "Z score": -0.41}, {"smiles": "O=C(Nc1ccc(N2CCOCC2)cc1)C1CC2C=CC1C2", "note": "(centres undefined)", "% Inhibition": -4, "Z score": 0.5}, {"smiles": "Oc1ccc(-c2nnc(-c3ccc(O)cc3)nn2)cc1", "% Inhibition": 39, "Z score": -2.04}, {"smiles": "Cc1noc(C)c1CC(=O)N[C@H]1CCS(=O)(=O)C1", "% Inhibition": 5, "Z score": -0.6}, {"smiles": "COc1cc(NC(=O)c2ccc3[nH]c4c(c3c2)CCCC4)c(OC)cc1NC(=O)c1ccccc1", "% Inhibition": 0, "Z score": -0.01}, {"smiles": "CCC[C@H](NC(C)=O)C(=O)NCc1nonc1C", "% Inhibition": -16, "Z score": 2.38}, {"smiles": "Fc1ccc2c(c1)ncn1nc(C3CCC3)nc21", "% Inhibition": 4, "Z score": -0.66}, {"smiles": "Cc1oc(-c2nc(C#N)c(N3CCCCCC3)o2)cc1S(=O)(=O)N1CCCCC1", "% Inhibition": 2, "Z score": -0.29}, {"smiles": "O=C(Nc1ccc(S(=O)(=O)N2CCCCCC2)s1)N1CCC[C@H](C(=O)N2CCCCCC2)C1", "% Inhibition": -19, "Z score": 2.21}, {"smiles": "COc1ccc(=O)n(Cc2nc3ccccc3s2)n1", "% Inhibition": -5, "Z score": 0.47}]}]}
